Some values that stand alone complete this part of the results.

This is an account of results in patent US20050187204A1, “Medicinal composition for lowering blood lipid level” (SANKYO COMPANY, LIMITED, priority 2002, published 2005).

This assay is described as follows: Evaluation studies of blood lipid levels in Beagle dogs (serum total cholesterol and LDL after 11 days of oral dosing). It counts as in vivo, Male Beagle dogs. The following applies: Table 1, relative value, pre-treatment average (2 weeks and 1 week before) = 100, oral capsule once daily, mean of 5 dogs, mg/kg: ursodeoxycholic acid 100, simvastatin 1, atorvastatin calcium 2.

As for `CCC(C)(C)C(=O)O[C@H]1C[C@@H](C)C=C2C=C[C@H](C)[C@H](CC[C@@H]3C[C@@H](O)CC(=O)O3)[C@H]21` [Simvastatin, (+)-(1S,3R,7S,8S,8aR)-1,2,3,7,8,8a-hexahydro-3,7-dimethyl-8-[2-[(2R,4R)-tetrahydro-4-hydroxy-6-oxo-2H-pyran-2-yl]ethyl]-1-naphthyl 2,2-dimethylbutyrate], the “Change in serum lipid level (total cholesterol or LDL)” value (shortened to “Change in serum lipid level”) by setting is: (4 days after treatment) 94.8%; (8 days after treatment) 94.1%; (12 days after treatment) 92.4%.
Regarding `CC(C)c1c(C(=O)Nc2ccccc2)c(-c2ccccc2)c(-c2ccc(F)cc2)n1CC[C@H](O)C[C@@H](O)CC(=O)O` [Atorvastatin calcium, (3R,5S)-7-[2-(4-fluorophenyl)-5-(1-methylethyl)-3-phenyl-4-phenylaminocarbonyl-1H-pyrrol-1-yl]-3,5-dihydroxyheptanoic acid], the “Change in serum lipid level” value worked out at 90.2% (4 days after treatment), 94.1% (8 days after treatment) and 91.7% (12 days after treatment).
Regarding `C[C@H](CCC(=O)O)[C@H]1CC[C@H]2[C@@H]3[C@@H](O)C[C@@H]4C[C@H](O)CC[C@]4(C)[C@H]3CC[C@]12C` [Ursodeoxycholic acid, ursodeoxycholic acid], the “Change in serum lipid level” value runs as follows: (4 days after treatment) 100.3%; (8 days after treatment) 99.4%; (12 days after treatment) 95.4%.
